Data on 58 compounds can be found in PMC4336329 (PLoS ONE, 2015).

The structures appear in SMILES notation. Out of some 310,000 compounds screened, about 2,200 (0.71%) showed an effect of 50% or more. The effect is printed as a negative number. Some of the results follow.

For this experiment, the target named is human ether-à-go-go-related gene (hERG) potassium channel (human, UniProt Q12809). Nature of the experiment: primary screen, population patch clamp on CHO cells stably expressing hERG.
Sequence of human ether-à-go-go-related gene (hERG) potassium channel (Q12809 whole entry, looked up): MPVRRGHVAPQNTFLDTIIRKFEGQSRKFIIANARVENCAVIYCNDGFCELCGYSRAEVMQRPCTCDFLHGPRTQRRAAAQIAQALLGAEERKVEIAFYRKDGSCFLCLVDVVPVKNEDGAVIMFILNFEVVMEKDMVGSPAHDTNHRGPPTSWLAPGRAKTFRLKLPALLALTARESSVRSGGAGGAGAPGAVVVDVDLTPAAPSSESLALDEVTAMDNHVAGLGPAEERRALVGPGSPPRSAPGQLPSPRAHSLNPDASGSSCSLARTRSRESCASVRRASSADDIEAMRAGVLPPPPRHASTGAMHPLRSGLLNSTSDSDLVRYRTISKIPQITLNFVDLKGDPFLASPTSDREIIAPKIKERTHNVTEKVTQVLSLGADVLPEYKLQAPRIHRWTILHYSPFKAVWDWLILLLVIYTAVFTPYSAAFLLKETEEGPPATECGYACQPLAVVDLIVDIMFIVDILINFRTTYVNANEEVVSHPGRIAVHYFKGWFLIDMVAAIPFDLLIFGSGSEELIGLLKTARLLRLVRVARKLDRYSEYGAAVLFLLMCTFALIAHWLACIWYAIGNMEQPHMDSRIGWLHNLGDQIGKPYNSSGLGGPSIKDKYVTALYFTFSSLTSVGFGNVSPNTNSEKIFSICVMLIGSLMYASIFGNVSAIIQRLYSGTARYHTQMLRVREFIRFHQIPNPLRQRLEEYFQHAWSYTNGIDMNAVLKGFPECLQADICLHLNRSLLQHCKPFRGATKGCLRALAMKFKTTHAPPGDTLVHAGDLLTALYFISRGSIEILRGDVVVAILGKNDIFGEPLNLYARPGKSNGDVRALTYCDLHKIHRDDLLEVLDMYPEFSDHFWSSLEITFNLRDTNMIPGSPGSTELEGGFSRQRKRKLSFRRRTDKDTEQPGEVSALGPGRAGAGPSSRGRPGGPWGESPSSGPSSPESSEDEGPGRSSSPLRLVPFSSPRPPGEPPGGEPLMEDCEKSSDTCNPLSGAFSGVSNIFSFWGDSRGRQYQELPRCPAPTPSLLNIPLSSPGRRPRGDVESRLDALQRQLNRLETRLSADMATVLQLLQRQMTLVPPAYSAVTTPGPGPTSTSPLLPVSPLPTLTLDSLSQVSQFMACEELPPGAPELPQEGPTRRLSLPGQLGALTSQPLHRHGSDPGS
As to `COC(=O)c1ccccc1S(=O)(=O)N1CCC(c2nc3ccccc3o2)CC1`, the “hERG current change (%, negative = inhibition) at 1uM” value is recorded as -6.04%.

`CCN(CC)C(=O)CCc1nnc(CCc2c[nH]c3ccccc23)o1`: the “hERG current change (%, negative = inhibition) at 1uM” value was found to be 6.15%. Next, `Cc1cc(C)cc(N(C(=O)CNC(=O)c2ccco2)C(C(=O)NC2CCCC2)c2cccnc2)c1` (stereo not shown): -0.0692%; `Cc1ccnn1C(C)C(=O)O` (stereo not shown): 13.4%. The same measure for `O=C(CN1CCN(c2ccc(O)cc2)CC1)Nc1ccc(SC(F)F)cc1`: -78.4%; for `CCc1cc(=O)oc2cc(OCC(=O)NCCCN3CCOCC3)c(Cl)cc12`: 24.8%. The same measure for `O=C(NCCc1cccnc1)c1cc(COc2ccc(F)cc2Cl)on1`: -2.95%; for `COc1cc2c(C(=O)NC3CCCCCC3)cn(C)c(=O)c2cc1OC`: 13.5%; for `CSCCC(/C(O)=C(\C#N)c1nc2ccccc2[nH]1)N1C(=O)c2ccccc2C1=O` (stereo not shown): 5.68%. With `Nc1nc(-c2ccc3c(c2)CCO3)cs1`, the “hERG current change (%, negative = inhibition) at 1uM” value stood at 9.89%. Next, `COc1ccc(S(=O)(=O)N(C)c2ccc(C(=O)NCc3ccco3)cc2)cc1`: 11.8%; `CCOC(=O)Cc1ncccc1C(=O)Nc1ccc(Oc2ccccc2)cc1`: 8.83%. The same measure for `Cc1ccc(C(=O)Oc2csc(=S)n2C(=O)c2ccc(C)cc2)cc1`: 19.8%; for `O=C1CS/C(=N\N=C\c2ccco2)N1c1ccccc1`: 11.5%. The same measure for `CCc1nc2c(nnn2Cc2ccc(F)cc2)c(=O)[nH]1`: 1.79%; for `CCOc1ccc(-c2cnc3ccccc3n2)cc1`: 13.4%; for `CCCCCCCCCc1nc(N)n[nH]1`: 8.8%. With `Cc1onc(-c2ccccc2Cl)c1C(=O)OCC(=O)N1CCN(c2ccccc2)CC1`, the “hERG current change (%, negative = inhibition) at 1uM” value was 0.527%. Take `CN(C)S(=O)(=O)c1ccc(N/C=C(\[N+](=O)[O-])S(=O)(=O)c2ccccc2)cc1`: the “hERG current change (%, negative = inhibition) at 1uM” value stood at 21.3%. Next, `Cn1c(C(=O)N2CCCC(C(=O)N3CCN(C(=O)c4ccco4)CC3)C2)cc2sccc21` (stereo not shown): 0.524%; `COc1ccc(Cc2nnc(NCCO)[nH]c2=O)cc1OC`: 13%; `COc1cc(-c2nnc3sc(Cc4ccccc4)nn23)cc(OC)c1OC`: 11.6%. The same measure for `COC(=O)c1ccc(CSc2nnc(CNC(=O)c3cccs3)o2)o1`: 8.05%; for `COCCCn1c(=O)/c(=C\c2ccccc2OC(F)F)s/c1=C(/C#N)C(=O)N1CCOCC1`: 9.19%; for `COc1cc2c(cc1NC(=O)c1cccc(F)c1)CCCC2`: 9.35%. The same measure for `CCC1CCCCN1CCCNC(=O)Cn1c2ccccc2c2nc(=O)cc(C)n21` (stereo not shown): -2.4%; for `COc1ccccc1C1CCN(Cc2ccccc2)CC1`: 8.45%; for `CC(=O)c1cccc(OCC(O)CN2CC=C(c3ccccc3)CC2)c1.O=C(O)C(=O)O` (stereo not shown): -50%. As to `CCOC(=O)C1CCN(C(=O)COC(=O)CNC(=O)c2sc3ccccc3c2Cl)CC1`, the “hERG current change (%, negative = inhibition) at 1uM” value is -3.75%.

With `COC(=O)c1c(NC(=O)COC(=O)CCc2ccc(S(=O)(=O)N3CCOCC3)cc2)sc2c1CCC2`, the “hERG current change (%, negative = inhibition) at 1uM” value was 7.26%. The same measure for `C/C(CC(=O)Nc1cccc(C(F)(F)F)c1)=N\NC(=O)c1ccncc1`: 15%; for `N#Cc1nc(N2CCOCC2)nc(N2CCOCC2)n1`: -12.7%. In the case of `O=C(Nc1nnc(Cc2ccc(Cl)cc2)s1)c1cccs1`, the “hERG current change (%, negative = inhibition) at 1uM” value is listed as -9.63%. The same measure for `O=C(Nc1ccc(Cl)cc1)Nn1cnc2ccccc2c1=O`: -0.139%; for `Cc1cc2nsnc2c(S(=O)(=O)NCC(=O)O)c1C`: 3.09%.

As for `COc1ccc2cc(C#N)c(Cl)nc2c1`, the “hERG current change (%, negative = inhibition) at 1uM” value worked out at 20%. Consider `COc1ccc(-c2c(C)[nH]n3c(=O)c(Cc4ccccc4)c(C)nc23)cc1OC`, for which the “hERG current change (%, negative = inhibition) at 1uM” value was found to be 14.4%. The same measure for `O=C(Nc1ccccc1)/C(=C/c1cccnc1)NC(=O)c1ccccc1`: 9.54%; for `COc1ccc(C(CC(=O)O)NC(=O)COc2ccccc2)cc1` (stereo not shown): 13.4%.

In the case of `CC(=O)N1CCN(CC(=O)Nc2ccccc2Sc2ccccc2)CC1`, the “hERG current change (%, negative = inhibition) at 1uM” value is given as -29.8%. In the case of `Cc1ccccc1CN(c1ccc(C(=O)N2CCN(C)CC2)cc1)S(C)(=O)=O`, the “hERG current change (%, negative = inhibition) at 1uM” value was determined as 11.4%.

For the compound `COc1cc(/C=N/NC(=O)Cc2ccccc2)cc(OC)c1OC`, the “hERG current change (%, negative = inhibition) at 1uM” value is given as 15.4%. Next, `O=C1OCCN1C(=O)[C@H]1[C@H](c2ccc(F)cc2)C(c2ccc(F)cc2)=NN1c1ccc(Br)cc1`: 11.6%; `Cc1cccc(CN2CCN(Cc3ccc(Cl)cc3)CC2)c1.O=C(O)C(=O)O`: 1.15%; `CCN1CCN(C(=O)C2CCCN(S(=O)(=O)c3cccc4nsnc34)C2)CC1` (stereo not shown): 6.38%. The same measure for `Cc1ccc(C(=O)Nc2cccc(C(=O)NC3CCCC3)c2)cc1`: 12%; for `Nc1nnnn1/N=C/C(Br)=C/c1ccccc1`: -11%; for `NC(=O)c1cccnc1Nc1cccc(F)c1`: 3.97%.

For the compound `CC(C)CSc1nnc(N)s1`, the “hERG current change (%, negative = inhibition) at 1uM” value was determined as 1.88%. The same measure for `CCOC(=O)C1=CN(C)C=C(C(=O)OCC)C1c1ccsc1`: -19.8%.

Turning to `C=CCNc1nc(S(=O)Cc2ccc(C)cc2)nc2c1CCCC2` (stereo not shown), the “hERG current change (%, negative = inhibition) at 1uM” value is reported as 15.8%. Next, `COCCNC(=O)CCCn1c(=O)c2cc(OC)c(OC)cc2n(CC(=O)c2cccc(OC)c2)c1=O`: 9.69%.

On to `CC1Sc2ccc(S(=O)(=O)CCC(=O)N3CCN(c4ccccc4)CC3)cc2NC1=O` (stereo not shown), for which the “hERG current change (%, negative = inhibition) at 1uM” value is recorded as 15.5%.

`CCOC(=O)c1c(C)c(C(=O)N2CCCCCC2)c(C)n1CC`: the “hERG current change (%, negative = inhibition) at 1uM” value was determined as 12.7%. `CC1(C)CC(=O)C(C=NCCc2ccccn2)=C(O)C1`: the “hERG current change (%, negative = inhibition) at 1uM” value came out at 7%. Regarding `CCCCCn1c(=O)[nH]c2cc(C(=O)NCCN(CC)CC)ccc2c1=O`, the “hERG current change (%, negative = inhibition) at 1uM” value was 8.67%.

For `Cc1csc(NC(=O)C(Cc2ccccc2)n2cccc2)n1` (stereo not shown), the “hERG current change (%, negative = inhibition) at 1uM” value is listed as 12.9%. Next, `Cc1c(C(=O)NCC2CCCO2)oc2ccc(Br)cc12` (stereo not shown): 11.3%.
